{
  "source": "paper PMC7819943",
  "about": "“Rice protein-binding microarrays: a tool to detect cis-acting elements near promoter regions in rice”",
  "note": "The list shows a part of the results.",
  "data": [
    {"biological_target": "T1, OsWOX13 (Oryza sativa, UniProt Q5QMM3 1-267)", "T1 sequence": "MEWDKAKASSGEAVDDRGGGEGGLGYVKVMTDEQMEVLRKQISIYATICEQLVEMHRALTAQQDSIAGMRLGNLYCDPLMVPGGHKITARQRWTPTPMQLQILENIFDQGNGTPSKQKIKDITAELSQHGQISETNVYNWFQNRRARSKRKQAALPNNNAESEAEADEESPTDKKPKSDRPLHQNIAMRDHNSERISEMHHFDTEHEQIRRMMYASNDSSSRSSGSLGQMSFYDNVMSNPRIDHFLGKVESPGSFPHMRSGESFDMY", "experiment": "protein-binding microarray (RPBM); PBS, 2% BSA, 51.3 ng/ul salmon testes DNA, 50 uM zinc acetate, 200 nM TF, 25 C, 1 h; high values mean tight binding", "conditions": "protein: recombinant; tags: N-terminal polyhistidine and DsRed monomer fusion (pET32a); label: CyDye5-dUTP incorporated in the synthesized complementary strand; 3' TTTTT single-stranded linker to array surface; dsDNA, one strand shown", "summary_of_the_method": "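A custom Agilent array was converted to double-stranded form by primer extension with Cy5-dUTP and blocked with 2% BSA. Protein at 200 nM in PBS with 2% BSA, salmon testes DNA and 50 µM zinc acetate was applied for 1 h at 25 °C, followed by washing. The proteins were polyhistidine–DsRed N-terminal fusions of transcription factors, expressed in E. coli BL21-CodonPlus and Ni–NTA-purified. The binding signal is per-feature fluorescence intensity (arbitrary units) from an Axon 4000B scanner.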", "values": [
      {"sequence": "GCTGATGACAGGAGTAAGGAGGTGGCACAATCGGGACCAACGGAGTCACCTAGTGCAG", "binding signal": "6380 fluorescence intensity (a.u.)"},
      {"sequence": "TTATAATAATTAAAACTCAATCAATCATACGTTAATACCACGGAGTCACCTAGTGCAG", "binding signal": "15600 fluorescence intensity (a.u.)"},
      {"sequence": "CCTGACTGCCTACACATTCTGGGCTGCAAAGAGGGGCCGTCGGAGTCACCTAGTGCAG", "binding signal": "12400 fluorescence intensity (a.u.)"},
      {"sequence": "TAATAATTTTGTGCGATAAATGAATATAGTTCCAGTAATTCGGAGTCACCTAGTGCAG", "binding signal": "10800 fluorescence intensity (a.u.)"},
      {"sequence": "TGTTGGTTAAGTAATTAATTAAGTCTTGGCTATTGGCGATCGGAGTCACCTAGTGCAG", "binding signal": "13500 fluorescence intensity (a.u.)"},
      {"sequence": "TTCTGATTGATGTCAGGAGTGGCGTGCGTACCAGTGCTGTCGGAGTCACCTAGTGCAG", "binding signal": "58100 fluorescence intensity (a.u.)"},
      {"sequence": "GGCCTGATTAGAACAGCACGAGCCATATGGATTTAAGCAGCGGAGTCACCTAGTGCAG", "binding signal": "22000 fluorescence intensity (a.u.)"},
      {"sequence": "ACGCCAAAATTAGAAATTTGAAGAAATTAAAACGATGCGACGGAGTCACCTAGTGCAG", "binding signal": "7980 fluorescence intensity (a.u.)"},
      {"sequence": "CAATAAATTTTCTTGAAAGATTGTCACAGCCGCTACACTACGGAGTCACCTAGTGCAG", "binding signal": "11300 fluorescence intensity (a.u.)"},
      {"sequence": "TTTTGTTCACTGATTTATGATTTATTTAAGAAGAGAGAGACGGAGTCACCTAGTGCAG", "binding signal": "19600 fluorescence intensity (a.u.)"},
      {"sequence": "TGTAAATGATGAAGAGTGCAAGCATCTAATTTTCTCCTCTCGGAGTCACCTAGTGCAG", "binding signal": "6140 fluorescence intensity (a.u.)"},
      {"sequence": "CCGTTTGTCCTTAATTGCAATTAACAATGCGGGAGTACAACGGAGTCACCTAGTGCAG", "binding signal": "39700 fluorescence intensity (a.u.)"},
      {"sequence": "CAAGATTATTTTAACTCTTTTGAAGGAAAGATAAAAGCTTCGGAGTCACCTAGTGCAG", "binding signal": "3880 fluorescence intensity (a.u.)"},
      {"sequence": "CCGTGACAGAACAACACACGACGGCAGCCAGAGCCAGCCGCGGAGTCACCTAGTGCAG", "binding signal": "9100 fluorescence intensity (a.u.)"},
      {"sequence": "ATACAAATCTCCGTCCATTAATGAAGAGAAGTCAAGTTGACGGAGTCACCTAGTGCAG", "binding signal": "8390 fluorescence intensity (a.u.)"},
      {"sequence": "CGGCGAATGTCAATCATGTCGCATGCCTTCCTTTCTCTTCCGGAGTCACCTAGTGCAG", "binding signal": "19300 fluorescence intensity (a.u.)"},
      {"sequence": "GGTTTGAATTTTAATATAATTTCTACAAAGAATTTAACCGCGGAGTCACCTAGTGCAG", "binding signal": "5070 fluorescence intensity (a.u.)"},
      {"sequence": "TAAATTTATAGTCAATTGTAGCATGAGCTCTAATAAACTGCGGAGTCACCTAGTGCAG", "binding signal": "4880 fluorescence intensity (a.u.)"},
      {"sequence": "TAGGATTGCCAGGTCCTAATTGGCTGATTCTGCCACTAACCGGAGTCACCTAGTGCAG", "binding signal": "8240 fluorescence intensity (a.u.)"},
      {"sequence": "AAATAATCTGTGTTTAATTTTCTTATATGTTTTCCCAGCACGGAGTCACCTAGTGCAG", "binding signal": "8510 fluorescence intensity (a.u.)"},
      {"sequence": "TTTGTCTTACAAATTTAAATTTCGAGTTGAAAATTTTCAGCGGAGTCACCTAGTGCAG", "binding signal": "3760 fluorescence intensity (a.u.)"},
      {"sequence": "AACAAGCCATTTAATTAATTTGGATGGTAGATCTGGAAGGCGGAGTCACCTAGTGCAG", "binding signal": "8810 fluorescence intensity (a.u.)"},
      {"sequence": "TGATAATAATTATTTCTTGGTCTGTGGGTTAGGGATGGTTCGGAGTCACCTAGTGCAG", "binding signal": "18500 fluorescence intensity (a.u.)"},
      {"sequence": "TGAGATAAATAGCATTAAATTAAAGTATGAAATAGTGGTGCGGAGTCACCTAGTGCAG", "binding signal": "4470 fluorescence intensity (a.u.)"},
      {"sequence": "TATAATTTTATTTGCGATGTCAATACATGTAGTGGGTTGGCGGAGTCACCTAGTGCAG", "binding signal": "12900 fluorescence intensity (a.u.)"},
      {"sequence": "TGGTCAGATAGCTAGATTGATATCCCTCTCTCTCTCTCACCGGAGTCACCTAGTGCAG", "binding signal": "13900 fluorescence intensity (a.u.)"},
      {"sequence": "GAAATAATTAATTAATTTAATTAATTGATTGACACAAGTACGGAGTCACCTAGTGCAG", "binding signal": "65000 fluorescence intensity (a.u.)"},
      {"sequence": "GACATCACTTCTGATTGGGATTAAGGTAATGAGCCCTATCCGGAGTCACCTAGTGCAG", "binding signal": "10200 fluorescence intensity (a.u.)"},
      {"sequence": "ATGTCTGGTTATTTAAATTATTCTAGCTAACTTGATTATTCGGAGTCACCTAGTGCAG", "binding signal": "4180 fluorescence intensity (a.u.)"},
      {"sequence": "AACATAATTGCTCCATGATTTGACAATATGGTGCTACATTCGGAGTCACCTAGTGCAG", "binding signal": "21700 fluorescence intensity (a.u.)"},
      {"sequence": "AATAATATCTCTATAAATAGATAACTGAAGTAGCAACGCACGGAGTCACCTAGTGCAG", "binding signal": "3410 fluorescence intensity (a.u.)"},
      {"sequence": "CCATTTAGATTATTAATTATGTTTTGAAAATCTCTACTTACGGAGTCACCTAGTGCAG", "binding signal": "20100 fluorescence intensity (a.u.)"},
      {"sequence": "GAGTTGAATGATGGCTGACTGGCTGTCTGATTTATGGTTTCGGAGTCACCTAGTGCAG", "binding signal": "20800 fluorescence intensity (a.u.)"},
      {"sequence": "GTAAATAAATTAATTTACTCCAACAGGTAGTATTTACTATCGGAGTCACCTAGTGCAG", "binding signal": "28100 fluorescence intensity (a.u.)"},
      {"sequence": "TTGTTGTGATTAAGACCATCTAATCCATCTGATCAGCGAGCGGAGTCACCTAGTGCAG", "binding signal": "11000 fluorescence intensity (a.u.)"},
      {"sequence": "TATCAAAGTTAAACTGTTTTAAATTTAACTAAGTTTAAAGCGGAGTCACCTAGTGCAG", "binding signal": "4610 fluorescence intensity (a.u.)"},
      {"sequence": "AAATTTGACAGATGTAATTATGGTACAATCGTAGTGTAATCGGAGTCACCTAGTGCAG", "binding signal": "35400 fluorescence intensity (a.u.)"},
      {"sequence": "CTGGGATTGGCTTAAGAGTCTTTGTTTTCCTTTTGCTGCTCGGAGTCACCTAGTGCAG", "binding signal": "30200 fluorescence intensity (a.u.)"},
      {"sequence": "TTCAAATTTTCTATCACGATACACATAATATTATATTGATCGGAGTCACCTAGTGCAG", "binding signal": "15300 fluorescence intensity (a.u.)"},
      {"sequence": "GAAAATAATTGAATGCAGGATATGCAATTTTGATGCTAGACGGAGTCACCTAGTGCAG", "binding signal": "18800 fluorescence intensity (a.u.)"},
      {"sequence": "TTAAATTTAGGCTTTAGTGTATTAGTGCAATCAATAGGCTCGGAGTCACCTAGTGCAG", "binding signal": "4370 fluorescence intensity (a.u.)"},
      {"sequence": "TGTAAGTTTGATTGAAATTAGAACGATGTGACGGATAAGTCGGAGTCACCTAGTGCAG", "binding signal": "33700 fluorescence intensity (a.u.)"}
    ]}
  ]
}
